From the supplement of paper PMC3334620
Over roughly 33,000 sequences, “E-score (-0.5 to 0.5)” has its median near -0.021; the highest 2% begin near 0.32. The list shows a part of the results.

Biological target: T1, Zap1 (UniProt P47043)
T1 sequence: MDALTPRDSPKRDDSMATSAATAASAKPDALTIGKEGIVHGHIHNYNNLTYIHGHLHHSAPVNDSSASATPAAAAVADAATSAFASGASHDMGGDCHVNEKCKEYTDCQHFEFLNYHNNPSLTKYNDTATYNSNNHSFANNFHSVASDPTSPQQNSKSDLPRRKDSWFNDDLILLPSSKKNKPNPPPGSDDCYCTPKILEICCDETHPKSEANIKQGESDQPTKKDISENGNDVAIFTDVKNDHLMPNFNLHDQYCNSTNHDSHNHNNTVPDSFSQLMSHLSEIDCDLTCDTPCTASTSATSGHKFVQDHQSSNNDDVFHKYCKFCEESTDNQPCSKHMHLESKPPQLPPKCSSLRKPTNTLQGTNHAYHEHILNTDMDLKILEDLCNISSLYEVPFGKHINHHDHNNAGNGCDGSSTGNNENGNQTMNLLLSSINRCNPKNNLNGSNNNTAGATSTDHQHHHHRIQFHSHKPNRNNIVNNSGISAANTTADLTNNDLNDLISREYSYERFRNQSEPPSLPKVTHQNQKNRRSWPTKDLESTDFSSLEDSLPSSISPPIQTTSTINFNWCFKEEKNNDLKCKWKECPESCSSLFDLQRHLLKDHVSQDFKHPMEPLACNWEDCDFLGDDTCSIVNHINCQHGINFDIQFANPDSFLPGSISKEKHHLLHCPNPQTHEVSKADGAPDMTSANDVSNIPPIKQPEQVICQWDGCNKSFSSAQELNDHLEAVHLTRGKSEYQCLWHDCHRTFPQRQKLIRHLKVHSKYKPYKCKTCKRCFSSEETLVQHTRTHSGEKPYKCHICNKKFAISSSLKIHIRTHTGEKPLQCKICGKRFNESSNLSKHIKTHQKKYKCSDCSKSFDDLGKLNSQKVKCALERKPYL
Experiment: PBM E-score (8-mer binding enrichment) (E-score (-0.5 to 0.5)); higher = stronger / more preferred TF binding; most listed sequences are background and not binding sites
Conditions: protein concentration: 200 nM; construct: GST-full length
Procedure, shortened: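 Full-length yeast transcription factors or their DNA-binding domains, GST-tagged and expressed with PURExpress, were applied at about 100-200 nM to universal all-10-mer Agilent arrays. These arrays had been made double-stranded by primer extension on fresh or once-stripped slides. Detection used fluorescent anti-GST, normalisation used masliner, and E-scores for ungapped eight-base words pooled with reverse complements came from the Universal PBM Analysis Suite.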

Sequence	PBM E-score
AACACATA	0.202
GTGCCTGA	-0.201
TCAACAAA	0.221
ACAACGGT	0.0336
ACACGGTA	0.0887
AAACGATG	-0.0259
ATATGGGC	0.0573
TAGCTGCA	-0.246
CCACCGAC	-0.203
TACAGATA	0.0943
AAAGAGAT	-0.0645
AATCCTGC	-0.231
AGAATGAA	0.0866
TCGGCTAA	-0.0807
AGACGGTA	0.118
TAGTTGGA	0.0081
GCTCAGAC	-0.146
AACCCGTT	0.224
CACCCAGC	-0.18
ACTCGAGT	0.0619
AGGCAGCC	-0.136
AAAACGGG	0.117
AATTGGGG	-0.128
GAAGCTCA	-0.161
CGCCTCCC	-0.305

Sequence	PBM E-score
CATCTAGA	0.112
TGTTAACA	0.0668
ACTTTTAG	0.0547
TCCCTCAA	0.014
GCTAGGAC	-0.234
ACGTGTCG	-0.15
GATTCGGA	0.0664
ATGGTCGC	0.114
CATTGGCC	-0.184
CCTACCCA	0.0987
GGATATAA	0.225
ATACTCAG	0.0785
AGAGACCT	-0.0112
CCATGATA	0.0221
ACATAAGC	-0.01
GTGCACCA	0.0419
GCCTCGGA	-0.216
GACTCTCA	-0.197
ACACACAT	0.00725
CAGTTGAG	-0.138
CGACACAA	-0.0138
GCTGCGAA	-0.0459
ACACAGCC	-0.0397
GGTTCTTA	0.217
AGATCACT	0.152

Sequence	PBM E-score
GGCCGGGA	-0.00587
CAGATAGC	-0.143
TACGTCTA	-0.00108
AGGTCGTC	0.0799
AAGTACTT	0.276
AATCACAT	-0.0878
CGGAAGGA	-0.257
ACTGATAC	-0.127
AAATCTGC	-0.0255
GCTCGCCC	-0.173
ATTGACAC	0.021
ATGGTTCA	0.119
CTAGCATA	-0.115
GATAACTA	0.231
CTGAGCGC	-0.201
AAGGAGTC	-0.158
AACCCGTA	0.27
CTTGATCC	0.0074
AAATGGTA	0.201
AAAATGCC	0.0196
CCTTAGAA	0.211
GTTCACAA	0.0509
GCTGAGAC	-0.0399
GCTAATGA	-0.0982
AGGCCTAT	0.00314

Sequence	PBM E-score
CGAGCTAA	-0.031
GATGCAAA	0.0934
GATGCCGA	-0.0475
GGCGTGAC	-0.0379
GCTGGAGA	-0.258
AACATCCT	-0.0473
GCCGGGTA	0.075
AGACGGCT	-0.264
GTATAACA	0.0711
ACACTTGC	-0.0103
CGTCCGGC	-0.0468
AAACCGGT	0.0353
CCGGTTCA	-0.139
GAGGTCAA	0.21
GCGGTCCA	0.0181
AGCGTAGG	-0.193
GAAGAGGC	-0.0597
ATCCAACC	-0.0092
GACTGAGC	-0.219
CATCATAC	0.165
GGGGTCGA	-0.0279
ATTATCGA	-0.112
ACGAAGCA	0.0109
ATATCGAG	-0.15
CCCTCCTA	-0.229

Sequence	PBM E-score
AATGCTCT	-0.232
GCAAATAC	0.0671
GATGGAAC	-0.188
CATTATAA	0.12
AGAGTTAC	0.0508
GCCTAGTA	0.0248
AATGTTTG	0.0436
AAGCATAG	-0.224
ACAGTTGG	-0.101
AATTGTCA	0.136
CGGGGCCC	0.216
AGATTCAA	-0.0176
CAATATTG	0.109
GTAACGAA	0.159
AACATGCT	-0.187
TAGACAGA	0.053
ACCGATTG	0.0283
CCCATACG	-0.106
CGTATGCA	-0.0881
GAAAGCTC	-0.183
CAGCCAGA	-0.16
AGAGAGGC	-0.284
AAAAGAGT	-0.00807
GTACATGA	0.0396
GAGGGTCA	0.397

Sequence	PBM E-score
TCTAGTCA	-0.0484
CTGGCATA	-0.0691
CATAAGCC	0.0614
CAACGAGG	0.0648
CACCACGC	-0.158
GCTCTTAC	-0.0996
CAACGAGA	-0.0227
CCGCGGTA	0.265
TGCTCAAA	-0.079
AAGCGTGG	-0.23
AGAACGCT	-0.25
GACACGGA	-0.139
CCAATACG	-0.155
GACCTACA	0.0563
AAGAAATT	0.0664
CTTACCCA	0.0429
TTCCAGAA	0.0549
CTGCAATA	-0.0259
GAGATACA	0.186
AGGATCAG	-0.211
ACTTCAGC	-0.202
TGTGACAA	0.0777
GGATTACC	0.172
GATAGGAA	-0.00552
ACAGCAAC	-0.00827

Sequence	PBM E-score
GTTTCCTA	0.142
ATCCTAAG	-0.00974
AAAACGGA	0.0457
CGTATCAC	-0.173
CATTGTAC	-0.0163
GATACAAA	0.152
CATGGTAG	0.0433
AAAGACGT	-0.105
CAGCGGGG	-0.0777
CTTGCAAG	0.189
ATAGCGTA	0.049
CTGACGAC	-0.0574
ATATGTTA	-0.0726
TACCCTGA	0.406
ACAGCATC	-0.0364
AATGAGGA	-0.232
ACGTTCCC	-0.227
ATTAATTG	0.158
CTGGACAG	0.0179
CCAATAGC	0.00062
CACACCTC	-0.121
ATGGGAAG	-0.106
